Results as given in PubChem BioAssay AID588795 (National Center for Advancing Translational Sciences (NCATS), 2011).
About 1,400 (0.36%) of roughly 390,000 compounds were called active. Inconclusive means that the source gave no clear call. Such entries were picked first, then a sample of the others. The call rests on the fitted dose curve; in most records, active means well fitted inhibition curve with a large enough effect; inconclusive means small, poorly fitted or top-dose-only effect; inactive means no such curve, though single readings can be large or run the other way. Where the call is inconclusive, the potency comes from a doubtful curve fit.

target: Flap endonuclease 1 (Homo sapiens) (UniProt P39748); assay: qHTS Assay for the Inhibitors of Human Flap endonuclease 1 (FEN1).; further: nearly all actives have a fitted effect of over 65% in size; details: Recombinant FEN1 flap cleavage, fluorescence, 15 min; series mostly up to 114 µM; activity change, negative = inhibition: at the top concentration
In short: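 In this screen, 50 nM flap DNA substrate was added to 10 nM FEN1 pretreated with compound for 15 min at room temperature; cleavage was followed with reads at 0 and 15 min, and Hill fitting gave concentration–response parameters.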
On the % scale 0 is the no-effect control and ±100 the full control effect; potency means the concentration at half of the fitted maximal effect; tags describe the fitted curve by direction and shape.

UniProt P39748, sequence (P39748 whole entry, looked up): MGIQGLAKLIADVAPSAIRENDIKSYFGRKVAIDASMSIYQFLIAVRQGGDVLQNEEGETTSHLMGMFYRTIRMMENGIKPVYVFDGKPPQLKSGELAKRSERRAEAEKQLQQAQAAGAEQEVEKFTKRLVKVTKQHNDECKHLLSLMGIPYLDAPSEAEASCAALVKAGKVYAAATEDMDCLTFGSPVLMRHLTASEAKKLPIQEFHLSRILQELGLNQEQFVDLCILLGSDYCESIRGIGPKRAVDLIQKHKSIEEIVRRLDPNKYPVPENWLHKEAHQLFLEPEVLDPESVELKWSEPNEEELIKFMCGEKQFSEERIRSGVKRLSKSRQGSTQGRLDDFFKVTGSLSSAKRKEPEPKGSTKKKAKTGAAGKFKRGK

| Compound | Potency | activity change, negative = inhibition |
| --- | --- | --- |
| COc1cc(/C=C2\SC(=S)N(Nc3ccccc3)C2=O)ccc1O | inconclusive: 44.7 µM [inhibitor, partial curve] |  |
| C=CCOc1ccc(C=NNc2ccc(S(=O)(=O)Nc3ccccc3C(=O)O)cc2[N+](=O)[O-])cc1OC | inconclusive: 35.5 µM [inhibitor, partial curve, poor fit] |  |
| COCCCNC(=O)c1ccc(Cn2c(=O)c3ccccc3n(CC(=O)Nc3ccc(C)cc3C)c2=O)cc1 |  | inactive: -13.5% |
| Cc1cc(-c2ccc(S(=O)(=O)N3CCc4ccccc4C3)s2)on1 | inconclusive: 89.1 µM [inhibitor, partial curve, poor fit] |  |
| COc1cccc2nc3c(C(=O)NCCN(C)C)cccc3cc12 | active: 12.6 µM |  |
| N#Cc1c2nc3ccccc3nc2n2cc(NC(=O)c3ccc(F)cc3)ccc12 | inconclusive: 56.2 µM [inhibitor, partial curve, poor fit] |  |
| Cc1ccnc2nc(C(=O)Nc3nnc(-c4ccc(Cl)cc4)o3)nn12 |  | inactive: -10.9% |
| O=c1c2c(O)cc(O)cc2oc2ccc(O)c(O[C@@H]3O[C@H](CO)[C@@H](O)[C@H](O)[C@H]3O[C@H]3O[C@H](CO)[C@@H](O)[C@H](O)[C@H]3O)c12 | inconclusive: 12.6 µM [inhibitor, partial curve, poor fit] |  |
| CCCN(CCC)S(=O)(=O)c1ccc(NC(=O)COc2ccccc2)cc1 | inconclusive: 79.4 µM [inhibitor, partial curve, poor fit] |  |
| Cc1ccc(Cl)cc1NC(=O)CSc1sc2c(O)cc(=O)[nH]c2c1C#N | inconclusive: 28.2 µM [inhibitor, partial curve, poor fit] |  |
| NC(=O)COC(=O)c1cccc2c1-c1ccccc1C2=O | inconclusive: 50.1 µM [inhibitor, partial curve] |  |
| Cc1ccc(C(=O)O)cc1-c1ccc(/C=C2\SC(=O)N(CC(=O)Nc3ccc4c(c3)OCO4)C2=O)o1 | active: 39.8 µM |  |
| CC1=NN(c2ccc(C)c(C)c2)C(=O)/C1=C/c1ccc2c(c1)n(C)c(=O)n2C | inconclusive: 89.1 µM [inhibitor, single point] |  |
| Cc1ccc(F)cc1NC(=O)c1ccc(Cn2nc(N3CCN(c4ccccc4)CC3)ccc2=O)o1 |  | inactive: -1.43% |
| c1nc(SSc2ncc3n[nH]nc3n2)nc2n[nH]nc12 | inconclusive: 20 µM [inhibitor, full curve, poor fit] |  |
| CNc1ccc2c3c(cccc13)C(=O)N(C)C2=O | inconclusive: 15.8 µM [inhibitor, full curve, poor fit] |  |
| c1ccc(Nc2cccc3c(Nc4ccccc4)cccc23)cc1 |  | inactive: -8.16% |
| O=C1N=C(N2CCCCC2)S/C1=C/C1=Cc2ccccc2OC1 |  | inactive: -8.62% |
| CNC(=S)N(Cc1cccs1)Cc1cc2cc(OC)c(OC)cc2[nH]c1=O | inconclusive: 89.1 µM [inhibitor, partial curve, poor fit] |  |
| CCCCNc1nc2c(S(=O)(=O)c3ccc(Br)cc3)nnn2c2ccsc12 |  | inactive: -12% |
| CN1CCN(c2ccc(NC(=O)c3ccc(-c4ccccc4F)o3)cc2)CC1 | inconclusive: 70.8 µM [inhibitor, partial curve, poor fit] |  |

| Compound | Potency | activity change, negative = inhibition |
| --- | --- | --- |
| Cc1nn(C(C)C(=O)NCc2ccc(OC(C)C)cc2)c(=O)c2c1sc1ccccc12 (configuration not stated) | inconclusive: 79.4 µM [inhibitor, partial curve, poor fit] |  |
| Cc1cccc(CSc2cn(CC(=O)N3CCOCC3)c3ccccc23)c1 | inconclusive: 79.4 µM [inhibitor, partial curve, poor fit] |  |
| CC1(OC(=O)C2CCCC2)C(=O)C=C2C=C(c3ccsc3)OC=C2C1=O (configuration not stated) | inconclusive: 31.6 µM [inhibitor, full curve] |  |
| Cc1cccc(C(=O)N(C(=O)c2cccc(C)c2)N(C)C)c1 | inconclusive: 89.1 µM [inhibitor, partial curve, poor fit] |  |
| COc1ccc(CN=Cc2c(C(F)(F)F)[nH][nH]c2=O)cc1 |  | inactive: -0.808% |
| CCC(/C=C1\Sc2ccc(OC)cc2N1CC)=C\c1sc2ccc(OC)cc2[n+]1CCCS(=O)(=O)[O-] | inconclusive: 10 µM [inhibitor, full curve, poor fit] |  |
| CN(Cc1nc(-c2ccc(Cl)cc2)no1)S(=O)(=O)c1ccccc1 |  | inactive: 16.6% |
| CCOC(=O)c1cc(-c2ccc(/C=C3/C(=O)NC(=O)C(C#N)=C3C)o2)ccc1Cl | inconclusive: 89.1 µM [inhibitor, single point] |  |
| O=C(Nc1ccc2c(c1)OCO2)c1ccc(COc2ccc3c(c2)CCC3)o1 | inconclusive: 79.4 µM [inhibitor, partial curve, poor fit] |  |
| CN(C)C=Nc1ncc2c3ccccc3n(CCN(C)C)c2c1C#N | inconclusive: 22.4 µM [inhibitor, full curve] |  |
| CCCC[C@H]1CCCO[C@@](C(=O)NCc2ccc(C)o2)(C(F)(F)F)C1 |  | inactive: -23.9% |
| COc1ccccc1NC(=O)N1CCN(c2ccc3nnc(-c4ccc(F)cc4)n3n2)CC1 | inconclusive: 14.1 µM [inhibitor, partial curve, poor fit] |  |
| Cc1nn(CCc2nc(-c3ccco3)cs2)c2[nH]c(=O)cc(C(F)(F)F)c12 | inconclusive: 79.4 µM [inhibitor, partial curve, poor fit] |  |
| N#Cc1c(NC(=O)c2ccc(Cn3cc(Br)cn3)o2)sc2c1CCCCCC2 | inconclusive: 89.1 µM [inhibitor, partial curve, poor fit] |  |
| COc1cccc2c1C(=O)c1c(O)c3c(c(O)c1C2=O)CC(O)(C(C)=O)CC3OC1CC(O)C(O)C(C)O1 (configuration not stated) | active: 28.2 µM |  |
| CNC(=O)c1ccc(-c2sc3nc(N4CCOCC4)c4c(c3c2N)CCCC4)o1 | inconclusive: 70.8 µM [inhibitor, single point] |  |
| COc1cccc(OC)c1C(=O)Nc1ccccc1Sc1ccccc1 | inconclusive: 89.1 µM [inhibitor, partial curve, poor fit] |  |
| COc1ccc(-c2nn(-c3ccccc3)cc2C(=O)Nc2cccc(C(=O)O)c2)cc1[N+](=O)[O-] | inconclusive: 39.8 µM [inhibitor, full curve] |  |
| O=S1(=O)Nc2c(cc(Cl)c3ccc(Cl)nc23)-c2ccccc21 | inconclusive: 44.7 µM [inhibitor, partial curve] |  |
| c1ccc(CN2CCC(Nc3nc(-c4cccnc4)nc4ccccc34)CC2)cc1 | inconclusive: 56.2 µM [inhibitor, partial curve, poor fit] |  |
| Cc1ccc2ccc(S(=O)(=O)n3nc(C)cc3C)cc2c1 | inconclusive: 79.4 µM [inhibitor, partial curve, poor fit] |  |

| Compound | Potency | activity change, negative = inhibition |
| --- | --- | --- |
| COc1cc(NC(=O)C2CCN(S(=O)(=O)c3c(C)noc3/C=C/c3ccccc3F)CC2)cc(OC)c1OC |  | inactive: -1.96% |
| COc1ccc(NC(=O)CCn2cnc3onc(-c4ccc(F)cc4)c3c2=O)cc1OC |  | inactive: -2.99% |
| O=C(NCCO)c1ccc2nc(-c3ccco3)c(-c3ccco3)nc2c1 | active: 44.7 µM |  |
| CCOC(=O)COn1c(=O)c(=O)n(O)c2ccccc21 | inconclusive: 39.8 µM [inhibitor, partial curve] |  |
| CCCC1=Nc2cc(C(=O)N3CCC(C(=O)OCC)CC3)ccc2Sc2ccccc21 | inconclusive: 56.2 µM [inhibitor, partial curve, poor fit] |  |
| CCN(CC)CCCNc1nc2ccccc2c2nc(-c3ccncc3)nn12 | active: 44.7 µM |  |
| CCOc1ccc(NC(=O)C(c2ccccn2)N(C(=O)CCl)c2ccc(OCC)cc2)cc1 (configuration not stated) | inconclusive: 100 µM [inhibitor, single point] |  |
| CC(C)C[C@H](NC(=O)c1[nH]cnc1C(=O)Nc1ccc(CNC(=O)OC(C)(C)C)cc1)C(=O)OCc1ccccc1 | inconclusive: 39.8 µM [inhibitor, single point] |  |
| Cc1ccc(NC(=O)CN2C(=O)S/C(=C/c3ccc(-c4cccc(C(=O)O)c4)o3)C2=O)cc1 | active: 20 µM |  |
| COC1=CC(=O)C=C(OC)C1=O | inconclusive: 5.62 µM [inhibitor, partial curve, poor fit] |  |
| CCCCCCC[n+]1c(/C=C/c2ccc(N(C)C)cc2)sc2ccccc21 | active: 35.5 µM |  |
| Cc1cc(C)c2nc(-c3ccccn3)cc(C(=O)Nc3ccc(S(=O)(=O)Nc4cc(C)on4)cc3)c2c1 | inconclusive: 79.4 µM [inhibitor, partial curve, poor fit] |  |
| Cc1ccc(Nc2nc(/N=C/NO)n[nH]2)cc1C |  | inactive: 3.64% |
| CC(C)c1ccc(C(C)NCCS(=O)(=O)c2ccc(Br)cc2)cc1 (configuration not stated) | inconclusive: 44.7 µM [inhibitor, partial curve, poor fit] |  |
| CCCSC1=N/C(=C\C=C\c2ccco2)C(=O)S1 | active: 50.1 µM |  |
| COc1cc(/C=C2\SC(=S)N(NC(=O)c3ccccc3OC)C2=O)ccc1O | inconclusive: 31.6 µM [inhibitor, partial curve, poor fit] |  |
| COc1cc(Cl)ccc1OCc1cc(C(=O)NCc2cc(C(C)C)no2)no1 | inconclusive: 89.1 µM [inhibitor, partial curve, poor fit] |  |
| CC1=NN(c2ccccc2)C(=O)/C1=C/c1cccs1 | inconclusive: 70.8 µM [inhibitor, single point] |  |
| COc1ccc(-c2cc(C(=O)Nc3ccccc3N3CCOCC3)c3ccccc3n2)cc1OC | inconclusive: 44.7 µM [inhibitor, partial curve, poor fit] |  |
| CN1CCN(CC(=O)NN2CC(=O)N(c3ccc(F)cc3)CC2=O)CC1 | inconclusive: 25.1 µM [inhibitor, partial curve, poor fit] |  |
